Laboratory results from PMC7320043.
These are yes or no findings as the source states them, for the method shown. For part of these data: In cells and extracts the contact can be indirect. Some entries that bind do so weakly or less than the wild type.

Chains of the proteins cited; added tags and fusions are not shown. Lines headed by an entry give the natural chain unless they say otherwise; changes in a name come on top. A line that says so, or that is headed by a name, gives the form on record, which may keep a tag or linker. Residues count along the entry.
UniProt Q13309: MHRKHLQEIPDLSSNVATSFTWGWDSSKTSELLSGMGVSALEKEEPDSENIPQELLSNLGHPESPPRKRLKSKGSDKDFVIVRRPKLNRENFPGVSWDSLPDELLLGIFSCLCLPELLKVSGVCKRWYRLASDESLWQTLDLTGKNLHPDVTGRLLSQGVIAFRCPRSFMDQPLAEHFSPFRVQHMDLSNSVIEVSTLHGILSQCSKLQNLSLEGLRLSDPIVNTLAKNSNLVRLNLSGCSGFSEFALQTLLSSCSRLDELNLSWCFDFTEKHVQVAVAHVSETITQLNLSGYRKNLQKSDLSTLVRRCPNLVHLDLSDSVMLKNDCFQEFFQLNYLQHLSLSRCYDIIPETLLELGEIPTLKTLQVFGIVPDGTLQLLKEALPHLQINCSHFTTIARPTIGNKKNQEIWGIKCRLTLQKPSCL
UniProt P67870: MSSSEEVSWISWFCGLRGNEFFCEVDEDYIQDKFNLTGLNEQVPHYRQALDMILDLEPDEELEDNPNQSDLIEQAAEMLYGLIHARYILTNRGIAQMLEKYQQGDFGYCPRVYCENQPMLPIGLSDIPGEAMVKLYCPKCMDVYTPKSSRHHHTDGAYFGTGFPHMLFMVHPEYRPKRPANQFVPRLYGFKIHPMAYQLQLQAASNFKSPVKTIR
in vitro transcribed and translated Uap1 (Q16222-2, form named): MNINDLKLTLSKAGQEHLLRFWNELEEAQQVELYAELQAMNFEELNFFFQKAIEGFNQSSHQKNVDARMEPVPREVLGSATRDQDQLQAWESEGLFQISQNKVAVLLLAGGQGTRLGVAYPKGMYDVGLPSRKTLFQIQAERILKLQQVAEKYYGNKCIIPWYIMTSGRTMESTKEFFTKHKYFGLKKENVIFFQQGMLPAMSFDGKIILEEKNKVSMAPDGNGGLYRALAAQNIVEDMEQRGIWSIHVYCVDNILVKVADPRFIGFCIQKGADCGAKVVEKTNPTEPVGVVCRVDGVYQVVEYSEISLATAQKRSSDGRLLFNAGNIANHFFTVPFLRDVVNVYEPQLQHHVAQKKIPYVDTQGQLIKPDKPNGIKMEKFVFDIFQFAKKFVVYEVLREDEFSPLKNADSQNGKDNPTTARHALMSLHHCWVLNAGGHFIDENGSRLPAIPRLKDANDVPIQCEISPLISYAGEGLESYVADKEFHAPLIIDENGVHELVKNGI
UniProt Q9Y3C8: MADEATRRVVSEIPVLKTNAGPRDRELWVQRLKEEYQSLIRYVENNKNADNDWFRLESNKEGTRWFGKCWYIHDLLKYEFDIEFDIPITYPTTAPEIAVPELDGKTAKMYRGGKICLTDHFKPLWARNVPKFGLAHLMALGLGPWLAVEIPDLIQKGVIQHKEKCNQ
UniProt O60244, residues 1053-1282: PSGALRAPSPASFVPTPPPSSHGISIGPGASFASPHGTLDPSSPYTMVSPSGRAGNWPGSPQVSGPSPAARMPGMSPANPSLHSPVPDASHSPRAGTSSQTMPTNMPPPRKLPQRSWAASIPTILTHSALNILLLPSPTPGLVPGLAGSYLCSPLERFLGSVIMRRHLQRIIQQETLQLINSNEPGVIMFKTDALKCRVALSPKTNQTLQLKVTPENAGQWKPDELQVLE
UniProt P63208: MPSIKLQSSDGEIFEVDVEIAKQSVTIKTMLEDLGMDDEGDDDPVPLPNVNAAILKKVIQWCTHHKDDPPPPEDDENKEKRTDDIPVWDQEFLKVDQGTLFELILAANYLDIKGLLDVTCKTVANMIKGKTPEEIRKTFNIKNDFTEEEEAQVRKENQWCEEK
UniProt P29144, residues 879-1141: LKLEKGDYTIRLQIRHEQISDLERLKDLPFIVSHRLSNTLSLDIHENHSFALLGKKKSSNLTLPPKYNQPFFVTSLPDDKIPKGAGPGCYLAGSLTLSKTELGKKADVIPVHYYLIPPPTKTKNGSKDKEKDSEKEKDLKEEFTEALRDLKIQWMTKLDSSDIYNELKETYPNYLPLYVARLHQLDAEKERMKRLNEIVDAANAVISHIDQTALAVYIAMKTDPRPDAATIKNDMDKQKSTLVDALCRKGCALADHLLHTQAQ
UniProt Q9UHP3, residues 323-450: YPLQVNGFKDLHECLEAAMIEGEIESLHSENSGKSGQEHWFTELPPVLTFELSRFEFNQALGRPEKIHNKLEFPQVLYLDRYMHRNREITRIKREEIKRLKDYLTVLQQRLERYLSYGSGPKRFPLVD
UniProt Q9GZX5, residues 310-532: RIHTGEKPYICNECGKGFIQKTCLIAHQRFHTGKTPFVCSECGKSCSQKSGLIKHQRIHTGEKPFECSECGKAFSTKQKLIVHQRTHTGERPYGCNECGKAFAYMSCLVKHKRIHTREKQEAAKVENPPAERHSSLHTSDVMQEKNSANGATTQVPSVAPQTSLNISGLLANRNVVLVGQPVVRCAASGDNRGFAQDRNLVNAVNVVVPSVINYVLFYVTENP

Legend:
[1] = biological target: Fbxl17 two-hybrid bait, FBD and LRRs (321-701aa) (human) (UniProt Q9UF56); assay: two-hybrid; Matchmaker Gold system (Clontech); bait Fbxl17 aa 321 to 701 in pGBKT7; screen of a normalized universal human cDNA library (Mate & Plate) with prey fused to the Gal4 activation domain
[2] = biological target: FLAG-Fbxl17 (full-length Fbxl17, 1-701aa) (human) (UniProt Q9UF56); assay: co-IP; HEK293T cells expressing FLAG-Fbxl17 constructs; immunoprecipitates using anti-FLAG beads probed for endogenous Klhl12 or for co-expressed HA-tagged Uap1, Ufc1 or Csnk2B with anti-HA antibody
[3] = biological target: FLAG-Fbxl17∆10LRR (1-384aa) (human) (UniProt Q9UF56); assay: as above
[4] = biological target: FLAG-Fbxl17∆3LRR (1-586aa) (human) (UniProt Q9UF56); assay: as above
[5] = biological target: FLAG-Fbxl17ΔFbox (Δ324-358aa) (human) (UniProt Q9UF56); assay: as above
[6] = biological target: FLAG-Fbxl17 (full-length Fbxl17, 1-701aa) (human) (UniProt Q9UF56); assay: co-IP; HEK293T cells co-transfected with Skp1, Cullin1, Rbx1 and N-terminally FLAG-tagged Fbxl17 constructs; 48 h post transfection lysed, immunoprecipitated with FLAG antibodies, blotted for the associated SCF subunits; binding quantified relative to WT Fbxl17
[7] = biological target: FLAG-Fbxl17ΔFbox (Δ324-358aa) (human) (UniProt Q9UF56); assay: as above
[8] = biological target: GST-Fbxl17(321-701aa) (human) (UniProt Q9UF56); assay: pull-down; bacterially expressed and purified GST proteins immobilised on a GST column, incubated with in vitro transcribed and translated Uap1 (rabbit reticulocyte lysate); SDS-PAGE, membranes probed with antibodies to Uap1; only the target purified
[9] = biological target: GST-Fbxl17Δ10LRR(321-383aa) (human) (UniProt Q9UF56); assay: as above
GST-Skp2 = GST-Skp2 (UniProt Q13309); assay: as above

Question: “Casein kinase 2, beta polypeptide, two-hybrid prey (from UniProt P67870 1-123) (domain or fragment)” was tested. Which binding [1] did it give?
Answer: binds

Question: Which binding [1] does the source give for “ClpX caseinolytic peptidase × homolog (E. coli), two-hybrid prey (from UniProt O76031 42-341) (domain or fragment)” here?
Answer: binds

Question: Which binding [2] does the source give for HA-Csnk2B (from UniProt P67870 1-215) here?
Answer: binds

Question: And the binding [3]?
Answer: binds

Question: What about the binding [4] of the same substance?
Answer: binds

Question: How did the binding [2] turn out when “HA-tagged Uap1 (from UniProt Q16222-2 1-505) (enzyme)” was run?
Answer: binds

Question: What about the binding [5] of the same substance?
Answer: binds

Question: And the binding [3]?
Answer: no binding

Question: What about the binding [4] of the same substance?
Answer: binds

Question: For “HA-tagged Ufc1 (from UniProt Q9Y3C8 1-167) (enzyme)”, which binding [2] is on record?
Answer: binds

Question: And the binding [3]?
Answer: no binding

Question: And the binding [4]?
Answer: binds

Question: With “Mediator complex subunit 14, two-hybrid prey (from UniProt O60244 1053-1282) (domain or fragment)” as the substance, how does the binding [1] read?
Answer: binds

Question: How did the binding [1] turn out when “Protein phosphatase 3, catalytic subunit, beta isozyme, two-hybrid prey (from UniProt P16298 381-496) (domain or fragment)” was run?
Answer: binds

Question: What does the source list for Skp1 (from UniProt P63208 1-163)?
Answer: binding [6]: binds; binding [7]: no binding

Question: With “Tripeptidyl peptidase II, two-hybrid prey (from UniProt P29144 879-1141) (domain or fragment)” as the substance, how does the binding [1] read?
Answer: binds

Question: “UDP-N-acetylglucosamine pyrophosphorylase 1, two-hybrid prey (from UniProt Q16222-2 357-505) (domain or fragment)” was tested. Which binding [1] did it give?
Answer: binds

Question: “Ubiquitin specific peptidase 25, two-hybrid prey (from UniProt Q9UHP3 323-450) (domain or fragment)” was tested. Which binding [1] did it give?
Answer: binds

Question: “Ubiquitin-fold modifier conjugating enzyme 1, two-hybrid prey (from UniProt Q9Y3C8 12-95) (domain or fragment)” was tested. Which binding [1] did it give?
Answer: binds

Question: With “Zinc finger protein 350, two-hybrid prey (from UniProt Q9GZX5 310-532) (domain or fragment)” as the substance, how does the binding [1] read?
Answer: binds

Question: Which results are given for “in vitro transcribed and translated Uap1 (from UniProt Q16222-2 1-505) (enzyme)”?
Answer: binding [8]: binds; binding [9]: no binding; binding (GST-Skp2): no binding
